Measurements as given in ChEMBL document CHEMBL4888484, “Replenishing the malaria drug discovery pipeline: Screening and hit evaluation of the MMV Hit Generation Library 1 (HGL1) against asexual blood stage Plasmodium falciparum ,using a nano luciferase reporter read-out” (2022).
Screen size: about 150,000 compounds; about 540 (0.36%) showed an effect of 50% or more. This is one part of the list.

system: Plasmodium falciparum; experiment: Primary screen in NF54 nanoGlo assay, in single point, at 2uM, 72h; a lower Z score goes with more inhibition; assay type: functional, Erythrocyte; conditions: timepoint 72 hour

Which “% Inhibition” value does the source give for `O=C(c1ccn(C(=O)Nc2ccccc2)n1)N1CCOCC1` here?
Its value is -10%.

What about the Z score of the same compound?
The Z score was 1.34.

Which results are given for `Cn1nccc1CCNS(=O)(=O)c1c[nH]c2cccc(F)c12`?
% Inhibition: 34%; Z score: -4.66

With `CN1CCN(CC(=O)Nc2cc(F)ccc2F)CCC1=O` as the compound, how does the “% Inhibition” value read?
Its value is -8%.

And the Z score?
Its Z score is 1.64.

Which results are given for `COc1ccccc1C1(CNC(=O)N[C@H]2CCO[C@@H]2c2nccn2C)CCC1`?
% Inhibition: 35%; Z score: -3.91

Which “% Inhibition” value does the source give for `COC1C(C)C(NC(=O)CCc2ccccc2C(=O)O)C1(C)C` (stereo not drawn) here?
The value was -7%.

What about the Z score of the same compound?
Its Z score is 0.86.

For `CN(C)C(=O)[C@@H]1CN(Cc2ccn(C)n2)CCN1Cc1ccn(C)n1`, which “% Inhibition” value is on record?
The value was 0%.

What about the Z score of the same compound?
Its Z score is -0.03.

What does the source list for `CC1CN(Cc2ccccc2)CCC1N(C)C(=O)Nc1cn[nH]c1` (stereo not drawn)?
% Inhibition: -12%; Z score: 1.37

What does the source list for `CC(C)[C@H](O)C1CCN(Cc2nc(-c3cccs3)no2)CC1`?
% Inhibition: -15%; Z score: 2.38

For `COc1ccccc1C(=O)N1c2ncnn2C2(CCCCC2)[C@@H]2CCCC[C@@H]21`, which “% Inhibition” value is on record?
Its value is -14%.

And the Z score?
Its Z score is 1.25.

`Cc1ccc(C(=O)NC[C@@H](O)CO)n1C(F)F` was tested. Which “% Inhibition” value did it give?
Its value is -5%.

What about the Z score of the same compound?
The Z score was 0.93.

`CCn1ccc(C(=O)N2C[C@H]3CC[C@@H](C2)N(CC=C(C)C)C3=O)cc1=O` was tested. Which “% Inhibition” value did it give?
Its value is 6%.

What about the Z score of the same compound?
Its Z score is -1.14.

For `CCC[C@H](C)C(=O)NCCC(=O)N1CCCCCC1`, which “% Inhibition” value is on record?
The value was 3%.

And the Z score?
The Z score was -0.37.

What does the source list for `COc1ccc(C(OCC2OC(n3ccc(=O)[nH]c3=O)C(OC3CCCCO3)C2O)(c2ccccc2)c2ccc(OC)cc2)cc1` (stereo not drawn)?
% Inhibition: -21%; Z score: 2.68

`Cc1cnc(NC(=O)N[C@H]2CCS(=O)(=O)[C@H]2C)s1` was tested. Which “% Inhibition” value did it give?
Its value is 2%.

What about the Z score of the same compound?
The Z score was -0.29.

`O=C(Nc1ccc(N2C(=O)CC3(CCCCCC3)C2=O)cc1)c1ccco1` was tested. Which “% Inhibition” value did it give?
Its value is -4%.

And the Z score?
The Z score was 0.43.

`Cc1nnc(NCc2ccc3c(c2)OCCO3)c(C#N)c1C` was tested. Which “% Inhibition” value did it give?
The value was -16%.

What about the Z score of the same compound?
The Z score was 3.18.

`CCCNc1ncc([C@H]2CC(=O)Nc3nn4c(C)cc(C)nc4c32)cn1` was tested. Which “% Inhibition” value did it give?
The value was -13%.

And the Z score?
The Z score was 2.42.

Which “% Inhibition” value does the source give for `CC(C)(C)C(=O)NCc1noc(C2CCCCC2)n1` here?
Its value is 1%.

What about the Z score of the same compound?
Its Z score is -0.19.

For `O=C(CCc1cscn1)NS(=O)(=O)c1cccnc1`, which “% Inhibition” value is on record?
Its value is 2%.

And the Z score?
The Z score was -0.19.

How did the “% Inhibition” value turn out when `C[C@H](NC(=O)C1(O)CCCC1)c1ccn(C)n1` was run?
Its value is -15%.

And the Z score?
Its Z score is 2.08.

How did the “% Inhibition” value turn out when `COc1ccc(-n2cc(-c3nc(-c4ccccc4Cl)no3)c3ccccc3c2=O)cc1OC` was run?
Its value is 11%.

What about the Z score of the same compound?
The Z score was -1.31.

How did the “% Inhibition” value turn out when `CN(C)C(=O)c1ccc(=O)n(CC23CCC(CC2)C3)c1` was run?
The value was -11%.

And the Z score?
Its Z score is 1.

`CC[C@@H](c1cccc(C)n1)n1cnc2ncccc2c1=O` was tested. Which “% Inhibition” value did it give?
The value was -10%.

What about the Z score of the same compound?
Its Z score is 1.4.

Which results are given for `COCC1CN(C(=O)NCCc2ccco2)CC(C)O1` (stereo not drawn)?
% Inhibition: 24%; Z score: -3.09

What does the source list for `Cc1ccc(-n2nc(C(=O)NCC3CCCO3)c(=O)n(C(C)c3ccccc3)c2=O)cc1F` (stereo not drawn)?
% Inhibition: -8%; Z score: 0.82

`COc1ccsc1S(=O)(=O)NCCC(F)(F)F` was tested. Which “% Inhibition” value did it give?
Its value is -12%.

And the Z score?
The Z score was 1.16.

How did the “% Inhibition” value turn out when `CO[C@@H](C)c1nc(CN(C)C(=O)c2nn(C)c(C)c2Cl)cs1` was run?
The value was -1%.

And the Z score?
The Z score was 0.19.

What does the source list for `CC1(C)OC(=O)N(c2cccnc2)[C@@]1(C)O`?
% Inhibition: -2%; Z score: 0.31

Which results are given for `O=C(C1CCCCC1)N1CC[C@@H]2COC(=O)N(Cc3ccccc3)[C@@H]2C1`?
% Inhibition: -4%; Z score: 0.53

Which “% Inhibition” value does the source give for `Cc1nc(CCCN(C)C)n(-c2cccc3cccnc23)n1` here?
The value was 9%.

And the Z score?
The Z score was -1.3.

With `CCn1ccnc1[C@H](C)NC(=O)Cn1ncc2cc(C)cnc21` as the compound, how does the “% Inhibition” value read?
Its value is -17%.

And the Z score?
The Z score was 2.59.

Which results are given for `COc1ccccc1CNC(=O)c1ccc(C)nc1C1CCN(Cc2cccnc2)CC1`?
% Inhibition: -6%; Z score: 0.66

`O=C(NC1CCCC1)[C@@H]1CCCn2c(-c3ccccc3)cnc21` was tested. Which “% Inhibition” value did it give?
Its value is -3%.

What about the Z score of the same compound?
The Z score was 0.5.

Which “% Inhibition” value does the source give for `CCC[C@H](NC(=O)Cc1cccc(C)c1)C(=O)O` here?
The value was -1%.

What about the Z score of the same compound?
Its Z score is 0.06.

What does the source list for `O=C(C1CCCN1C(=O)C1CCCC1)N1CCOC(C(F)F)C1` (stereo not drawn)?
% Inhibition: -11%; Z score: 1.3

`Cc1cc(C)n(C[C@H](C)Nc2nc(-c3cccnc3)nc3c2CCNC3)n1` was tested. Which “% Inhibition” value did it give?
The value was 7%.

And the Z score?
The Z score was -0.92.

Which “% Inhibition” value does the source give for `Cc1ccc(CN2CCN(Cc3nnc(C(C)C)o3)[C@H]3CS(=O)(=O)C[C@H]32)o1` here?
Its value is 2%.

And the Z score?
The Z score was -0.34.

How did the “% Inhibition” value turn out when `CCN(C(=O)c1cnn(C2CCC2)c1)c1cccnc1` was run?
The value was -10%.

What about the Z score of the same compound?
The Z score was 1.82.

How did the “% Inhibition” value turn out when `CN(C)c1nc(NCc2noc(C3CCCC3)n2)ncc1F` was run?
Its value is -9%.

And the Z score?
Its Z score is 1.14.

`CC(=O)Nc1nc(-c2ccc(S(=O)(=O)N3CCN(c4ccccc4)CC3)cc2)cs1` was tested. Which “% Inhibition” value did it give?
The value was -6%.

What about the Z score of the same compound?
The Z score was 0.93.

What does the source list for `Cc1nn(C)c(C)c1S(=O)(=O)NC(C)(C)C(=O)N(C)C`?
% Inhibition: -6%; Z score: 1.2

What does the source list for `O=C(C1CCC2CCCCC2C1)N1CC(O)(CO)C1` (stereo not drawn)?
% Inhibition: -15%; Z score: 2.31

With `O=S(=O)(c1ccc2oc(Nc3cc(Cl)ccc3F)nc2c1)N1CCOCC1` as the compound, how does the “% Inhibition” value read?
The value was 28%.

What about the Z score of the same compound?
The Z score was -3.83.

Which results are given for `CC(c1nc2cc(Cl)ccc2[nH]1)N(C)CC(O)C(F)(F)F` (stereo not drawn)?
% Inhibition: 3%; Z score: -0.3

With `O=C(Nc1ccc(NC(=O)c2ccco2)cc1C(F)(F)F)Nc1ccc(NC(=O)c2ccco2)cc1C(F)(F)F` as the compound, how does the “% Inhibition” value read?
The value was -5%.

What about the Z score of the same compound?
Its Z score is 0.71.

For `C[C@H](O)c1cccc(/C=C/C2CCCCC2)n1`, which “% Inhibition” value is on record?
Its value is -5%.

What about the Z score of the same compound?
The Z score was 1.09.

What does the source list for `Cc1ccn2c(C3CCN(C(=O)c4scnc4C)CC3)nnc2c1`?
% Inhibition: 27%; Z score: -3.66

Which “% Inhibition” value does the source give for `Cc1cc(-c2csc(NC(=O)C3CCN(C4CC4)CC3)n2)c(C)o1` here?
Its value is -3%.

And the Z score?
The Z score was 0.44.

Which “% Inhibition” value does the source give for `CN1CCC(CNC(=O)c2cccc(Cn3ccnc3)c2)CC1` here?
Its value is -11%.

What about the Z score of the same compound?
The Z score was 2.12.

`CCc1nccn1CC1(CNC(=O)c2cnc[nH]2)CC1` was tested. Which “% Inhibition” value did it give?
Its value is -13%.

And the Z score?
The Z score was 1.73.

For `O=C1C2CCCN2C(=O)N1C1CCN(c2ccc(Cl)c(F)c2)C1` (stereo not drawn), which “% Inhibition” value is on record?
The value was -2%.

What about the Z score of the same compound?
The Z score was 0.31.

Which results are given for `CC(C)C1OCCC1C(=O)N(Cc1ccccc1F)c1cn[nH]c1` (stereo not drawn)?
% Inhibition: -3%; Z score: 0.57

What does the source list for `CC(C)(C)C(=O)COc1ccc(Cl)cc1C(N)=O`?
% Inhibition: -13%; Z score: 2.54

Which results are given for `Cc1ccc2c(c1N)[C@@H](C)CC21CCCCC1`?
% Inhibition: -1%; Z score: 0.06
